Test results taken from patent US20230250148A1 (published 2023).
Read-outs that look alike come from different tables or passages of the source.

Tests used:
biotinylated human FcRn [1] = target: T1, biotinylated human FcRn (human, UniProt P55899 part only; P61769 part only, limits assumed, biotinylated, site not stated); assay: ELISA pH 5.5, fusion protein coated, biotinylated human FcRn titrated
T1 construct: Bought reagent (Immunitrack); composition not described; also called human FcRn receptor

biotinylated human FcRn [2] = target: T1, biotinylated human FcRn; assay: as above; remark: listed apart in the source
T1 sequence (P55899 24-297 limits assumed, chain 1 of 2): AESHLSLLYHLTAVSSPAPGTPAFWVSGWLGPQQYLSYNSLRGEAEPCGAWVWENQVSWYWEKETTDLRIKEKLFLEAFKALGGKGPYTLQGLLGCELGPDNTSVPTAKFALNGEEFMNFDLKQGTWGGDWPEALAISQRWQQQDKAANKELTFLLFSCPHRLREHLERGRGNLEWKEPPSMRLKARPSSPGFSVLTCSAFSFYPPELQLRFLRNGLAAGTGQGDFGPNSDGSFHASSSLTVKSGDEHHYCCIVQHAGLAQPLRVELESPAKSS
T1 sequence (P61769 21-119 limits assumed, chain 2 of 2, further chain): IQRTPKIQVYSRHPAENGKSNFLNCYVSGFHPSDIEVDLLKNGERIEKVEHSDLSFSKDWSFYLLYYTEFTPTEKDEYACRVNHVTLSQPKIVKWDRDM

biotinylated human FcRn [3] = target: T1, biotinylated human FcRn; assay: as above; remark: listed apart in the source
[4] = target: T2, biotinylated human complement component C1q (human, UniProt P02745; P02746; P02747, biotinylated, site not stated); assay: ELISA, fusion protein coated, biotinylated human C1q at 1000 ng/mL
T2 construct: also called biotinylated-C1q
T2 sequence (P02745 23-245 limits assumed, chain 1 of 3): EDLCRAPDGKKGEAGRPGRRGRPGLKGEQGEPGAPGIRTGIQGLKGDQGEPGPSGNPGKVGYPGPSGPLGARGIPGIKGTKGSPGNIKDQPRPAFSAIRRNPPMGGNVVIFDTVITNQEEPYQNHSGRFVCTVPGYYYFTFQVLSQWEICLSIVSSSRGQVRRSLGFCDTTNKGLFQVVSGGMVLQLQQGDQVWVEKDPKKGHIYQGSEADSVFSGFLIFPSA
T2 sequence (P02746 28-253 limits assumed, chain 2 of 3, further chain): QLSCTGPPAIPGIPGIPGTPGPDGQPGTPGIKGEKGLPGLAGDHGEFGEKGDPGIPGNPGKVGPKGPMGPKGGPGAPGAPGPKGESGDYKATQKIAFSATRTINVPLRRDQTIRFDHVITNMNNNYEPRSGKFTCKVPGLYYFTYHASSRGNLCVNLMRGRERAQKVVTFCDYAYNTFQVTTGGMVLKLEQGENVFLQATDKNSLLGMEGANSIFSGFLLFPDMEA
T2 sequence (P02747 29-245 limits assumed, chain 3 of 3, further chain): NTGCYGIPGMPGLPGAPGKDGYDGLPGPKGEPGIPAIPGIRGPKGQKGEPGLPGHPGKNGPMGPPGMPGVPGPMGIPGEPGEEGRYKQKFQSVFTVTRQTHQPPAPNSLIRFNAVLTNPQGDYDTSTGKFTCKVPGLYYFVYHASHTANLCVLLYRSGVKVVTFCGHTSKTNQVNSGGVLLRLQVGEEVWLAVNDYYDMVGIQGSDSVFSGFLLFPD

[5] = target: T3, biotinylated recombinant human Fc(gamma)RI (human, UniProt P12314 16-288, biotinylated, site not stated); assay: ELISA, fusion protein coated, biotinylated rhFc(gamma)RI at 3000 ng/mL
T3 construct: Bought reagent; construct not described; also called rhFc(gamma)RI; Fc(gamma) receptor I
T3 sequence (P12314 16-288 limits assumed): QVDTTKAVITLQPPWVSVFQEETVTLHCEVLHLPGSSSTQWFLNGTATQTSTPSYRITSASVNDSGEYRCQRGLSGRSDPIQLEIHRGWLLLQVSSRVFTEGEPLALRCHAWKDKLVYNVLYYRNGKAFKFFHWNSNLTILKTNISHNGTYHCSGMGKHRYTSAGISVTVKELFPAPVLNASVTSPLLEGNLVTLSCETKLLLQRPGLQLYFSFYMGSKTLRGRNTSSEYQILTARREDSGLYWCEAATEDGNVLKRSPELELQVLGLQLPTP

biotinylated human FcRn [6] = target: T1, biotinylated human FcRn; assay: ELISA pH 5.5, fusion protein coated, biotinylated human FcRn titrated; remark: listed apart in the source

B1: insulin-Fc fusion protein of SEQ ID NO: 91 (Fc fusion)
chain: FVNQHLCGSHLVEALELVCGERGFHYGGGGGGSGGGGGIVEQCCTSTCSLDQLENYCGGGGGQGGGGQGGGGQGGGGG[no letters for human IgG1 Fc with N297S (EU numbers)]
notes: non-glycosylated
- EC50 (biotinylated human FcRn [1]): 0.943 µg/mL
- EC50 (biotinylated human FcRn [2]): 0.943 µg/mL

B2: insulin-Fc fusion protein of SEQ ID NO: 78 (Fc fusion)
chain: FVNQHLCGSHLVEALALVCGERGFHYGGGGGGSGGGGGIVEQCCTSTCSLDQLENYCGGGGGQGGGGQGGGGQGGGGG[no letters for human IgG1 Fc with N297S (EU numbers)]
- EC50 (biotinylated human FcRn [3]): 0.825 µg/mL
- % reduction in C1q binding relative to SEQ ID NO: 76 [4]: > 80%
- EC50 (biotinylated human FcRn [2]): 0.825 µg/mL

B3: insulin-Fc fusion protein of SEQ ID NO: 84 (Fc fusion)
chain: FVNQHLCGSHLVEALALVCGERGFHYGGGGGGSGGGGGIVEQCCTSTCSLDQLENYCGGGGGQGGGGQGGGGQGGGGG[no letters for human IgG1 Fc with N297R (EU numbers)]
- % reduction in Fc(gamma)RI binding relative to SEQ ID NO: 76 [5]: > 80%
- % reduction in C1q binding relative to SEQ ID NO: 76 [4]: > 80%
- EC50 (biotinylated human FcRn [6]): 0.696 µg/mL

B4: insulin-Fc fusion protein of SEQ ID NO: 87 (Fc fusion)
chain: FVNQHLCGSHLVEALALVCGERGFHYGGGGGGSGGGGGIVEQCCTSTCSLDQLENYCGGGGGAGGGGAGGGGAGGGGG[no letters for human IgG1 Fc with N297S (EU numbers)]
- EC50 (biotinylated human FcRn [3]): 0.701 µg/mL

B5: insulin-Fc fusion protein of SEQ ID NO: 94 (Fc fusion)
chain: FVNQHLCGSHLVEALELVCGERGFHYGGGGGGSGGGGGIVEQCCTSTCSLDQLENYCGGGGGQGGGGQGGGGQGGGGG[no letters for human IgG1 Fc with N297R (EU numbers)]
- EC50 (biotinylated human FcRn [1]): 0.913 µg/mL

B6: insulin-Fc fusion protein of SEQ ID NO: 96 (Fc fusion)
chain: FVNQHLCGSHLVEALALVCGERGFHYGGGGGGSGGGGGIVEQCCTSTCSLDQLENYCGGGGGQGGGGQGGGGQGGGGGQGGGG[no letters for human IgG1 Fc with N297S (EU numbers)]
- EC50 (biotinylated human FcRn [3]): 0.672 µg/mL

B7: insulin-Fc fusion protein of SEQ ID NO: 97 (Fc fusion)
chain: FVNQHLCGSHLVEALALVCGERGFHYGGGGGGSGGGGGIVEQCCTSTCSLDQLENYCGGGGQGGGG[no letters for human IgG1 Fc with N297S (EU numbers)]
- EC50 (biotinylated human FcRn [3]): 0.679 µg/mL

B8: insulin-Fc fusion protein of SEQ ID NO: 89 (Fc fusion)
chain: FVNQHLCGSHLVEALALVCGERGFHYGGGGGGSGGGGGIVEQCCTSTCSLDQLENYCGGGGAGGGG[no letters for human IgG1 Fc with N297S (EU numbers)]
- EC50 (biotinylated human FcRn [3]): 0.657 µg/mL

B9: insulin-Fc fusion protein of SEQ ID NO: 98 (Fc fusion)
chain: FVNQHLCGSHLVEALALVCGERGFHYGGGGGGSGGGGGIVEQCCTSTCSLDQLENY[no letters for human IgG1 Fc with N297S (EU numbers)]
- EC50 (biotinylated human FcRn [3]): 0.401 µg/mL
